± gives the uncertainty stated by the source. Shown are siRNA guide strands that differ only in the seed, positions 2 to 7.
What was measured:
3LL = assay: cell viability relative to siNT1 control; higher = less toxic; settings: concentration: 10 nM; 96 h; Mus musculus;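 also: Luminescence-based viability of cells reverse transfected in 384-well plates with lipid-complexed siRNAs built on a non-toxic 19mer backbone whose passenger strand carries 2′-O-methyl groups at positions 1 and 2, triplicates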
Experimental: (§1)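 Arrayed screen of 4096 siRNA duplexes, each carrying one of all possible 6mer seeds at guide-strand positions 2-7 in a fixed neutral 19mer scaffold (constant flanks: U at position 1, then ACAUGUAAACCA, plus a 3' AA overhang). The passenger strand is 2'-O-methylated at positions 1-2 so only the guide strand loads into RISC. Duplexes were reverse-transfected at 10 nM with RNAiMAX in triplicate in 384-well plates; viability was read by CellTiter-Glo ATP content 96 h after transfection. Values are % viability normalised to lipid-only wells (HeyA8, H460, M565) or to siNT1 (3LL).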

M565 = assay: cell viability relative to lipid-only control; HeyA8 human ovarian and H460 human lung cancer; M565 mouse liver and 3LL mouse lung cancer; siNT1 is a non-toxic control siRNA; higher = less toxic; settings: concentration: 10 nM; 96 h; Mus musculus
Experimental: as §1

H460 = assay: as above; settings: concentration: 10 nM; 96 h; Homo sapiens
Experimental: as §1

HeyA8 = assay: as above; settings: concentration: 10 nM; 96 h; Homo sapiens
Experimental: as §1
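For cell viability relative to lipid-only control in this document: reverse lipid transfection in 384-well plates, in triplicate, of duplexes on a non-toxic 19mer backbone with passenger strand 2′-O-methylated at positions 1 and 2, luminescence viability read-out.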

UAGACUCACAUGUAAACCAAA showed a cell viability (3LL) of 36.1 ± 4%, a cell viability (M565) of 18.7 ± 5.5% and a cell viability (H460) of 61.3 ± 5.2%. The cell viability (HeyA8) was 66.6 ± 5.6%.
For UAGACUGACAUGUAAACCAAA, the cell viability (3LL) was 89.1 ± 6%, the cell viability (M565) was 48.2 ± 5.2% and the cell viability (H460) was 70.3 ± 14%. For the same sequence, the cell viability (HeyA8) was 87 ± 28%.
Work on UAGACUUACAUGUAAACCAAA yielded a cell viability (3LL) of 80 ± 4%, a cell viability (M565) of 69.6 ± 10% and a cell viability (H460) of 68.8 ± 9.4%. It also gave a cell viability (HeyA8) of 76 ± 3.3%.
UAGAGAAACAUGUAAACCAAA was tested, and the cell viability (3LL) was 82.9 ± 5%, the cell viability (M565) was 69.8 ± 4.2% and the cell viability (H460) was 68 ± 8.5%. The cell viability (HeyA8) was 90.9 ± 6.2%.
Sequence UAGAGACACAUGUAAACCAAA has a cell viability (3LL) of 35.5 ± 7.8%, a cell viability (M565) of 19.5 ± 5.3% and a cell viability (H460) of 38.1 ± 6.2%. For the same sequence, the cell viability (HeyA8) was 25.5 ± 6.8%.
UAGAGAGACAUGUAAACCAAA showed a cell viability (3LL) of 67.2 ± 8.8%, a cell viability (M565) of 40.9 ± 8.3% and a cell viability (H460) of 77.2 ± 12%. It also gave a cell viability (HeyA8) of 83.3 ± 7.2%.
Sequence UAGAGAUACAUGUAAACCAAA has a cell viability (3LL) of 31.9 ± 0.78%, a cell viability (M565) of 14.1 ± 3.8% and a cell viability (H460) of 75.1 ± 5.4%. It also gave a cell viability (HeyA8) of 75.4 ± 5.2%.
UAGAGCAACAUGUAAACCAAA gave a cell viability (3LL) of 44.5 ± 5.7%, a cell viability (M565) of 63.5 ± 6.2% and a cell viability (H460) of 70.4 ± 3.5%. The cell viability (HeyA8) was 93.7 ± 13%.
Sequence UAGAGCCACAUGUAAACCAAA has a cell viability (3LL) of 4.98 ± 0.59%, a cell viability (M565) of 9.32 ± 4.5% and a cell viability (H460) of 48.1 ± 2.3%. The cell viability (HeyA8) was 27.7 ± 0.81%.
Sequence UAGAGCGACAUGUAAACCAAA has a cell viability (3LL) of 79.6 ± 1.4%, a cell viability (M565) of 79.2 ± 2.8% and a cell viability (H460) of 70.9 ± 12%. For the same sequence, the cell viability (HeyA8) was 90 ± 7.1%.
With UAGAGCUACAUGUAAACCAAA the cell viability (3LL) was 16.4 ± 1.8%, the cell viability (M565) was 31.1 ± 1.6% and the cell viability (H460) was 48.7 ± 10%. The cell viability (HeyA8) was 53 ± 4.4%.
In the case of UAGAGGAACAUGUAAACCAAA, the cell viability (3LL) is reported as 85.7 ± 9.2%, the cell viability (M565) is reported as 36.9 ± 3.7% and the cell viability (H460) is reported as 80.8 ± 19%. The cell viability (HeyA8) was 69.4 ± 5.6%.
UAGAGGCACAUGUAAACCAAA showed a cell viability (3LL) of 2.48 ± 0.27%, a cell viability (M565) of 4.58 ± 0.54% and a cell viability (H460) of 33.4 ± 4.9%. For the same sequence, the cell viability (HeyA8) was 25.6 ± 1.2%.
With UAGAGGGACAUGUAAACCAAA the cell viability (3LL) was 54.9 ± 8.2%, the cell viability (M565) was 21.02 ± 0.05% and the cell viability (H460) was 54.4 ± 1.6%. The cell viability (HeyA8) was 46.4 ± 2.9%.
UAGAGGUACAUGUAAACCAAA showed a cell viability (3LL) of 21 ± 3.3%, a cell viability (M565) of 6.78 ± 0.93% and a cell viability (H460) of 53.3 ± 6.8%. The cell viability (HeyA8) was 37.3 ± 2.3%.
In the case of UAGAGUAACAUGUAAACCAAA, the cell viability (3LL) is reported as 81.5 ± 4.7%, the cell viability (M565) is reported as 59.6 ± 2.5% and the cell viability (H460) is reported as 99.3 ± 24%. For the same sequence, the cell viability (HeyA8) was 87.5 ± 5.2%.
UAGAGUCACAUGUAAACCAAA gave a cell viability (3LL) of 41.1 ± 2.3%, a cell viability (M565) of 55.2 ± 10% and a cell viability (H460) of 36.5 ± 8.6%. It also gave a cell viability (HeyA8) of 30.7 ± 1.6%.
Sequence UAGAGUGACAUGUAAACCAAA has a cell viability (3LL) of 60.6 ± 2.8%, a cell viability (M565) of 32.5 ± 2.4% and a cell viability (H460) of 61.9 ± 9%. For the same sequence, the cell viability (HeyA8) was 77.3 ± 8.4%.
UAGAGUUACAUGUAAACCAAA gave a cell viability (3LL) of 74.9 ± 6%, a cell viability (M565) of 57 ± 3.5% and a cell viability (H460) of 89 ± 22%. The cell viability (HeyA8) was 63.8 ± 1.9%.
UAGAUAAACAUGUAAACCAAA was tested, and the cell viability (3LL) was 89.2 ± 4.2%, the cell viability (M565) was 63.8 ± 5.4% and the cell viability (H460) was 90.4 ± 26%. For the same sequence, the cell viability (HeyA8) was 91.1 ± 6.3%.
Work on UAGAUACACAUGUAAACCAAA yielded a cell viability (3LL) of 36.2 ± 7.5%, a cell viability (M565) of 54 ± 4% and a cell viability (H460) of 76.1 ± 12%. For the same sequence, the cell viability (HeyA8) was 71.7 ± 5.3%.
Sequence UAGAUAGACAUGUAAACCAAA has a cell viability (3LL) of 89.7 ± 9.6%, a cell viability (M565) of 54.1 ± 2% and a cell viability (H460) of 85.3 ± 17%. It also gave a cell viability (HeyA8) of 80.9 ± 5.5%.
UAGAUAUACAUGUAAACCAAA showed a cell viability (3LL) of 81.7 ± 0.86%, a cell viability (M565) of 73.8 ± 6.4% and a cell viability (H460) of 95.2 ± 20%. It also gave a cell viability (HeyA8) of 65.5 ± 5.5%.
Sequence UAGAUCAACAUGUAAACCAAA has a cell viability (3LL) of 83.6 ± 7.4%, a cell viability (M565) of 54.8 ± 3.3% and a cell viability (H460) of 68.3 ± 7.9%. The cell viability (HeyA8) was 78.6 ± 16%.
Sequence UAGAUCCACAUGUAAACCAAA has a cell viability (3LL) of 21.8 ± 3.3%, a cell viability (M565) of 16.3 ± 2.3% and a cell viability (H460) of 55 ± 8.2%. It also gave a cell viability (HeyA8) of 62.2 ± 7.8%.
UAGAUCGACAUGUAAACCAAA was tested, and the cell viability (3LL) was 79.4 ± 5.1%, the cell viability (M565) was 49.9 ± 5% and the cell viability (H460) was 76.4 ± 9.9%. For the same sequence, the cell viability (HeyA8) was 83.3 ± 5.6%.
In the case of UAGAUCUACAUGUAAACCAAA, the cell viability (3LL) is reported as 65.8 ± 7.1%, the cell viability (M565) is reported as 57 ± 4.7% and the cell viability (H460) is reported as 86.5 ± 12%. It also gave a cell viability (HeyA8) of 65.9 ± 10%.
In the case of UAGAUGAACAUGUAAACCAAA, the cell viability (3LL) is reported as 84.9 ± 9.5%, the cell viability (M565) is reported as 55.3 ± 7.8% and the cell viability (H460) is reported as 91.7 ± 20%. The cell viability (HeyA8) was 78.9 ± 8.3%.
In the case of UAGAUGCACAUGUAAACCAAA, the cell viability (3LL) is reported as 11.1 ± 1.1%, the cell viability (M565) is reported as 7.05 ± 2.6% and the cell viability (H460) is reported as 36 ± 6.5%. It also gave a cell viability (HeyA8) of 22 ± 2.6%.
UAGAUGGACAUGUAAACCAAA showed a cell viability (3LL) of 63.6 ± 4.1%, a cell viability (M565) of 81.8 ± 5.5% and a cell viability (H460) of 56.3 ± 7.6%. For the same sequence, the cell viability (HeyA8) was 52.5 ± 13%.
UAGAUGUACAUGUAAACCAAA showed a cell viability (3LL) of 27.8 ± 3.9%, a cell viability (M565) of 30.9 ± 3.3% and a cell viability (H460) of 87.9 ± 23%. It also gave a cell viability (HeyA8) of 43.6 ± 2.9%.
UAGAUUAACAUGUAAACCAAA gave a cell viability (3LL) of 92.7 ± 3%, a cell viability (M565) of 69.9 ± 5.7% and a cell viability (H460) of 102 ± 16%. It also gave a cell viability (HeyA8) of 90.6 ± 7.7%.
UAGAUUCACAUGUAAACCAAA showed a cell viability (3LL) of 82.6 ± 8.9%, a cell viability (M565) of 61.1 ± 12% and a cell viability (H460) of 67.3 ± 11%. The cell viability (HeyA8) was 46.3 ± 2.6%.
UAGAUUGACAUGUAAACCAAA gave a cell viability (3LL) of 94.3 ± 6.8%, a cell viability (M565) of 70.9 ± 4.4% and a cell viability (H460) of 106 ± 9.8%. For the same sequence, the cell viability (HeyA8) was 87.9 ± 10%.
UAGAUUUACAUGUAAACCAAA gave a cell viability (3LL) of 88.7 ± 9%, a cell viability (M565) of 75.3 ± 6.5% and a cell viability (H460) of 90 ± 14%. For the same sequence, the cell viability (HeyA8) was 66.3 ± 4.1%.
UAGCAAAACAUGUAAACCAAA was tested, and the cell viability (3LL) was 100 ± 16%, the cell viability (M565) was 69.9 ± 8.7% and the cell viability (H460) was 85.4 ± 24%. For the same sequence, the cell viability (HeyA8) was 83.8 ± 1.9%.
UAGCAACACAUGUAAACCAAA was tested, and the cell viability (3LL) was 54.4 ± 7%, the cell viability (M565) was 40.2 ± 5.4% and the cell viability (H460) was 65.2 ± 11%. The cell viability (HeyA8) was 71.9 ± 6.9%.
UAGCAAGACAUGUAAACCAAA gave a cell viability (3LL) of 81 ± 5.2%, a cell viability (M565) of 40.6 ± 7.7% and a cell viability (H460) of 81.6 ± 7.5%. For the same sequence, the cell viability (HeyA8) was 86.2 ± 10%.
UAGCAAUACAUGUAAACCAAA gave a cell viability (3LL) of 88.3 ± 6.6%, a cell viability (M565) of 51.6 ± 4% and a cell viability (H460) of 71 ± 7.5%. For the same sequence, the cell viability (HeyA8) was 75.5 ± 20%.
UAGCACAACAUGUAAACCAAA was tested, and the cell viability (3LL) was 68.3 ± 0.98%, the cell viability (M565) was 23.7 ± 3.3% and the cell viability (H460) was 66.8 ± 3.3%. The cell viability (HeyA8) was 83.8 ± 7.7%.
With UAGCACCACAUGUAAACCAAA the cell viability (3LL) was 53.2 ± 5%, the cell viability (M565) was 38.8 ± 3.2% and the cell viability (H460) was 47.8 ± 2.9%. The cell viability (HeyA8) was 72.9 ± 4.2%.
In the case of UAGCACGACAUGUAAACCAAA, the cell viability (3LL) is reported as 78.6 ± 13%, the cell viability (M565) is reported as 48.7 ± 0.95% and the cell viability (H460) is reported as 58.2 ± 6.9%. For the same sequence, the cell viability (HeyA8) was 71.6 ± 12%.
With UAGCACUACAUGUAAACCAAA the cell viability (3LL) was 26.8 ± 11%, the cell viability (M565) was 13.4 ± 3.5% and the cell viability (H460) was 51.7 ± 8.6%. The cell viability (HeyA8) was 47.3 ± 2.3%.
Work on UAGCAGAACAUGUAAACCAAA yielded a cell viability (3LL) of 81.1 ± 7.5%, a cell viability (M565) of 39.3 ± 5.9% and a cell viability (H460) of 59.6 ± 4.7%. The cell viability (HeyA8) was 76.7 ± 4.8%.

Source: the supplement of paper PMC6206098
